# From article PMC4336329 (PLoS ONE, 2015)
# Among all 310,000 compounds or so, about 2,200 (0.71%) showed an effect of 50% or more. Effects have a minus sign here. Some of the results follow.
# Target: human ether-à-go-go-related gene (hERG) potassium channel (human, UniProt Q12809)
# Assay: primary screen, population patch clamp on CHO cells stably expressing hERG
# Chain of human ether-à-go-go-related gene (hERG) potassium channel (Q12809 whole entry, looked up): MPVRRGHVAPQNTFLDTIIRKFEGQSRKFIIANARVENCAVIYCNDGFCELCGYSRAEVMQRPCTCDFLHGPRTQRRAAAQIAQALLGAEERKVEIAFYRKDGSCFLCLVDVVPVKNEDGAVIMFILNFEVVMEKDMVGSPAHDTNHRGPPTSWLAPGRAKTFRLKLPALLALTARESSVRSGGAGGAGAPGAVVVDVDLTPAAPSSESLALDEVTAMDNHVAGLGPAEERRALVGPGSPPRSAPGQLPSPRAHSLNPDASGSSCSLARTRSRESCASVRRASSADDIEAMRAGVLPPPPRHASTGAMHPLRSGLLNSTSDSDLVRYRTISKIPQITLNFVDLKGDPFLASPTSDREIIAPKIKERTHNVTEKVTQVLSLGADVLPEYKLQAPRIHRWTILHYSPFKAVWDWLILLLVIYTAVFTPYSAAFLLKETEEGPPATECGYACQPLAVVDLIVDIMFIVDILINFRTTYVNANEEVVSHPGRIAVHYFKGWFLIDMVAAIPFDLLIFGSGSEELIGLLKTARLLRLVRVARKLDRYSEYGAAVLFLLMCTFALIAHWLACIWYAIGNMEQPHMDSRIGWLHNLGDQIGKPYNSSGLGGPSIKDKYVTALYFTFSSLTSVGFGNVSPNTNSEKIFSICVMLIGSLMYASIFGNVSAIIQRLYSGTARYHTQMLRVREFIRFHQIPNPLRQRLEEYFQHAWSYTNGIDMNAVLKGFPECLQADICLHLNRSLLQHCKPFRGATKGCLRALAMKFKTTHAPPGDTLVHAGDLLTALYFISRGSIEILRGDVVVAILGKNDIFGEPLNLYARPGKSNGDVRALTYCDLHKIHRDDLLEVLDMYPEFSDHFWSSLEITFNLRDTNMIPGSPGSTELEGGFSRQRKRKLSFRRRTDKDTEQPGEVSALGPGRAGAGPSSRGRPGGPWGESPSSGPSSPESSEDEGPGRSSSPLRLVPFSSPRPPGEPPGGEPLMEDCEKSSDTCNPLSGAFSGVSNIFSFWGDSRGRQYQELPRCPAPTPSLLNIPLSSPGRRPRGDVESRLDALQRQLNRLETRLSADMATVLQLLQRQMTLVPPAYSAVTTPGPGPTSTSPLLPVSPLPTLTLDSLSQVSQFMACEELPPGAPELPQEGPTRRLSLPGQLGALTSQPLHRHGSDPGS
row,SMILES,"hERG current change (%, negative = inhibition) at 1uM [%]"
1,COc1ccc(S(=O)(=O)N(CC(=O)O)Cc2ccccc2)cc1OC,14
2,O=C(CCN1C(=O)/C(=C/c2ccc(Cl)cc2)SC1=S)Nc1cccnc1,16.6
3,CCCCOC(=O)c1ccc(N)cc1,11.7
4,CS(=O)(=O)c1ccc2nc(NC(=O)c3ccc(S(=O)(=O)NCC4CCCO4)cc3)sc2c1 (centres unmarked),9.44
5,O=C(CSc1ccsc1[N+](=O)[O-])N1CCN(c2ccc(Cl)cc2)CC1,11.5
6,CCOc1cc(CO)ccc1OCC(=O)N1CCCCC1,10
7,O=C(CSc1nc(CCC2CCCC2)nc2ccccc12)NCc1ccc2c(c1)OCO2,6.82
8,Cc1ccc(NC(=O)CN(C)C(=O)COC(=O)c2ccc(Cl)cc2O)cc1,6.15
9,COc1cccc(C2C3CN(C)CC=C3C(C#N)=C(N)C2(C#N)C#N)c1OC (centres unmarked),-1.85
10,Cc1ccoc1C(=O)N1CCCC(CCC(=O)N2CCN(c3ccccn3)CC2)C1 (centres unmarked),7.98
11,COC(=O)c1ccc(C(=O)OC)c(NC(=O)COC(=O)CC2CC3CCC2C3)c1 (centres unmarked),10.2
12,COc1ccnc(N2CCN(c3ccc(Cl)cc3)CC2)c1C#N,16.2
13,NC(=O)c1ccc(NC(=O)CCCc2nc(-c3ccccc3Cl)no2)cc1,16.8
14,O=c1c2ccccc2nc(SCc2cc(F)cc3c2OCOC3)n1Cc1ccco1,-3.42
15,COc1ccc(S(=O)Cc2ccc(C(=O)N3CCN(C(=O)c4ccco4)CC3)o2)cc1 (centres unmarked),13.6
16,CC1=C(C)CC(C(=O)NNC(=O)c2ccccc2)C(C(=O)O)C1 (centres unmarked),15.6
17,COc1cccc(C(C)N(C)Cc2nc(-c3ccoc3)oc2C)c1 (centres unmarked),-5.55
18,CCc1ccc(OCC(=O)N/N=C(\C)c2ccc(O)cc2O)cc1,7.69
19,COc1ccc(Cl)cc1NC(=O)NCCN1CCCCC1,10.9

row,SMILES,"hERG current change (%, negative = inhibition) at 1uM [%]"
1,O=C(Nc1ccccc1)c1ccc(S(=O)(=O)NCc2ccco2)cc1,7.71
2,COc1ccc(OC)c(S(=O)(=O)Nc2cccc(O)c2)c1,10.3
3,c1ccc2oc(-c3csc(N4CCOCC4)n3)cc2c1,6.36
4,COCCNC(=O)CSc1nnc(-c2ccccc2)c(-c2ccccc2)n1,9.15
5,Cc1ccc(C(C)NC(=O)c2cccs2)cc1 (centres unmarked),6.94
6,NNc1nc(Nc2ccccc2)nc(N2CCCCC2)n1,12.2
7,COc1ccc(C(=O)c2ncc(C(F)(F)F)cc2Cl)cc1,6.95
8,CCc1c(C)nc2c(-c3ccccc3)c(C)nn2c1Nc1ccc(NC(C)=O)cc1,10.2
9,Cc1ccc(CC(=O)NCCCn2ccnc2)cc1,3.98
10,Cc1ccc(NC(=O)COC(=O)c2ccc(Cl)cc2)cc1S(=O)(=O)N(C)C,7.25
11,C=CCN(CC(=O)NCc1ccc(OC)cc1)C(=O)c1csnn1,5.05
12,O=C(NC(Cc1ccccc1)C(=O)O)/C(=C\c1ccco1)NC(=O)c1ccc(Br)cc1 (centres unmarked),0.338
13,N#CCOc1ccc2oc(-c3ccco3)cc(=O)c2c1,-6.35
14,COc1ccc2[nH]c(C)c(C(=O)CN(C)CC3OCCO3)c2c1,12.3
15,CCN1CCN(C(=O)c2ccc(N3CC4CC(C3)c3cccc(=O)n3C4)c([N+](=O)[O-])c2)CC1 (centres unmarked),14.4
16,CCCCCC(=O)NN1C(=S)N(c2ccc(OC)cc2)C(=O)C1CC(=O)Nc1ccccc1 (centres unmarked),4.87
17,CCOC(=O)C1CCCN(c2c(N3CCC(N4CCCCC4)CC3)c(=O)c2=O)C1 (centres unmarked),8.42
18,COc1ccc(NC(=O)Nc2ccc(F)cc2)cn1,16
19,O=C(O)CC1c2ccccc2CCN1S(=O)(=O)c1ccc(F)cc1 (centres unmarked),9.38

row,SMILES,"hERG current change (%, negative = inhibition) at 1uM [%]"
1,CCn1c(SCC(=O)Nc2nc(-c3ccc(C)cc3)cs2)nnc1-c1ccccc1,2.49
2,O=C(C1CC1)N1CCc2cc(S(=O)(=O)N(CCO)Cc3ccccc3)ccc21,1.01
3,Cc1nn(Cc2ccc([N+](=O)[O-])cc2)c(=O)n1-c1ccc(F)cc1,9.97
4,O=C(NCc1nc2ccccc2[nH]1)C1=C[C@H](C2CCCCC2)C[C@H](OCc2ccc(CO)cc2)O1,6.73
5,CC(=O)C1=C(c2ccccc2)NC(=S)NC1c1ccc(O)c(O)c1 (centres unmarked),13.2
6,O=C(Nc1ccc(SC(F)F)cc1)C1=COCCO1,1.85
7,CCOCC(=O)Nc1cccc(NC(C)=O)c1,6.22
8,CCN(CC(=O)Nc1c(F)cccc1F)C(=O)c1cc([N+](=O)[O-])ccc1N1CCOCC1,7.64
9,O=C(CN(CCc1ccccc1)S(=O)(=O)c1ccc(Br)cc1)N/N=C/c1ccccc1C(=O)O,10.4
10,O=c1[nH]c(C2CCN(S(=O)(=O)c3ccccc3F)CC2)nc2c1nnn2Cc1ccc2c(c1)OCCO2,8.2
11,CCn1c(OC)nc2c1c(=O)n(C)c(=O)n2C,11
12,Cc1ccc(-c2csc(/C=C3\SC(C)C(=O)N3CC(=O)Nc3ccccc3F)n2)cc1 (centres unmarked),6.48
13,COc1ccc(C(=O)NC(=S)NNC(=O)c2ccc(C)cc2)cc1,14.7
14,CC(NC(=O)Cc1ccccc1)c1nc2ccccc2[nH]1 (centres unmarked),9.94
15,CCOC(=O)C1(Cc2ccc(OC)cc2)CCN(C(=O)c2csc(C)n2)CC1,12.8
16,O=C(Nc1ccc2[nH]ncc2c1)c1cccc(F)c1,12.9
17,Cc1ccc(Nc2nc(COC(=O)COc3ccc(C=O)cc3)cs2)cc1,7.46
18,O=C(NCCS(=O)(=O)NCc1ccccc1)c1ccc2c(c1)OCO2,12.4
